The target in experiment [1] is HA-PPARδ (human) (UniProt Q03181). The experiment can be described thus: co-IP; Figure S5A; which beads and which tagged constructs were used was not shown.
Experiment [2] concerns the target HA-ΔODD-HIF1α (UniProt Q16665). The experiment can be described thus: co-IP; anti-HA agarose beads, 4 h at 4 °C, lysates of co-transfected HEK293T in IP lysis buffer (20 mmol/L Tris-HCl pH 7.9, 200 mmol/L NaCl, 5 mmol/L MgCl2, 10% glycerol, 0.2 mmol/L EDTA, 0.1% NP-40); Western blot; in Figure 6C with or without co-expressed PPARδ; in Figure 6E cells treated with GW501516 (6 h) or solvent.

Sequences of proteins named here, by UniProt entry; tags and fusion partners are left off. A change or cut given only in a name is not applied to a line headed by its entry. A line that says so, or that is headed by a name, gives the form on record, which may keep a tag or linker.
UniProt Q03181: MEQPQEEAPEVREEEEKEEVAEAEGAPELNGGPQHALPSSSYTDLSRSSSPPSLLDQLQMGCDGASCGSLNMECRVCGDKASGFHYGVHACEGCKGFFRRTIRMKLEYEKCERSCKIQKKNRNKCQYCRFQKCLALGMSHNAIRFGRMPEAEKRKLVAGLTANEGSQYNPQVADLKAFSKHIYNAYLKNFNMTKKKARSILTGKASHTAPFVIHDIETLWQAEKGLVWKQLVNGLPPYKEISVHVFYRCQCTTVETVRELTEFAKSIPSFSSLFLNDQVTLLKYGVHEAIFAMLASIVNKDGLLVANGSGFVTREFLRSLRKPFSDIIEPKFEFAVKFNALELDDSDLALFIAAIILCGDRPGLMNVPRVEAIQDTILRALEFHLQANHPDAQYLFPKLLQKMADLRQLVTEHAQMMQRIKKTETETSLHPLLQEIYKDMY
UniProt Q16665: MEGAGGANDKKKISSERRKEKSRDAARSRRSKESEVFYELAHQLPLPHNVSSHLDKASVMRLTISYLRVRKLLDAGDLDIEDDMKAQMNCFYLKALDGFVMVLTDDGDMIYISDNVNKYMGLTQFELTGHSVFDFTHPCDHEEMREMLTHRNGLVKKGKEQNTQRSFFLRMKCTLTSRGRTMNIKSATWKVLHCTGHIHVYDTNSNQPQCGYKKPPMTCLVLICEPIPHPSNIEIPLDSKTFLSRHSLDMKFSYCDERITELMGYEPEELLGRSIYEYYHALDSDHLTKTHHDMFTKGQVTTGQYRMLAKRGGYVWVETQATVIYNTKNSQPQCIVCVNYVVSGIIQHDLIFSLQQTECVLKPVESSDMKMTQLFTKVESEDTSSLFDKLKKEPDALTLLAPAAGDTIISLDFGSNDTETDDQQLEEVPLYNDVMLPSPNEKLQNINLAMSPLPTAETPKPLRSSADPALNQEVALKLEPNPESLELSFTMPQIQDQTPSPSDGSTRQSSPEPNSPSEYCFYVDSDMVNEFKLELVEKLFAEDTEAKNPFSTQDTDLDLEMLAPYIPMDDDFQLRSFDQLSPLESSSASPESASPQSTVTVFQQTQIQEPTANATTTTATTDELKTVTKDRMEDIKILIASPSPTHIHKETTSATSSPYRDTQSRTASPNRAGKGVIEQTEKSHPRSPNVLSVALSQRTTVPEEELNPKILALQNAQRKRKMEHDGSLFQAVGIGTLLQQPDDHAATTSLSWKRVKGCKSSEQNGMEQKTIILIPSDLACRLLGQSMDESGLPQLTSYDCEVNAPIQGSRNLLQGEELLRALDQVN
HA-ΔODD-HIF1α (Q16665, form named): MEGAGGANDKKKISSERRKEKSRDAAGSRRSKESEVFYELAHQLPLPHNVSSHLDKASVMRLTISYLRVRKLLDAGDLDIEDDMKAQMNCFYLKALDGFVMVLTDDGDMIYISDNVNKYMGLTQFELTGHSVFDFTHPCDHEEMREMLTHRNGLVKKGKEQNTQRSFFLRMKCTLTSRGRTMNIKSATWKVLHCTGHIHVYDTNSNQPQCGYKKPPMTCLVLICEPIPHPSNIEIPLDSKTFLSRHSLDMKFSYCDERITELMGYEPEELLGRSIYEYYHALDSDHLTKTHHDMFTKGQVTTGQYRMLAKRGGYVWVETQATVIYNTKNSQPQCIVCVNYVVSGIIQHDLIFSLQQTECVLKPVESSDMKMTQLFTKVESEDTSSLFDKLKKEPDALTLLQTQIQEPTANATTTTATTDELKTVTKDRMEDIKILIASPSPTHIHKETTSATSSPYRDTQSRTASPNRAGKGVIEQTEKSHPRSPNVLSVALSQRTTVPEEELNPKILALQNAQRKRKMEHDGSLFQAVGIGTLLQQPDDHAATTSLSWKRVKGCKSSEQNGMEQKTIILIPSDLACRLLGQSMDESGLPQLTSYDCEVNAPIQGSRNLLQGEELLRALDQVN
UniProt P27540: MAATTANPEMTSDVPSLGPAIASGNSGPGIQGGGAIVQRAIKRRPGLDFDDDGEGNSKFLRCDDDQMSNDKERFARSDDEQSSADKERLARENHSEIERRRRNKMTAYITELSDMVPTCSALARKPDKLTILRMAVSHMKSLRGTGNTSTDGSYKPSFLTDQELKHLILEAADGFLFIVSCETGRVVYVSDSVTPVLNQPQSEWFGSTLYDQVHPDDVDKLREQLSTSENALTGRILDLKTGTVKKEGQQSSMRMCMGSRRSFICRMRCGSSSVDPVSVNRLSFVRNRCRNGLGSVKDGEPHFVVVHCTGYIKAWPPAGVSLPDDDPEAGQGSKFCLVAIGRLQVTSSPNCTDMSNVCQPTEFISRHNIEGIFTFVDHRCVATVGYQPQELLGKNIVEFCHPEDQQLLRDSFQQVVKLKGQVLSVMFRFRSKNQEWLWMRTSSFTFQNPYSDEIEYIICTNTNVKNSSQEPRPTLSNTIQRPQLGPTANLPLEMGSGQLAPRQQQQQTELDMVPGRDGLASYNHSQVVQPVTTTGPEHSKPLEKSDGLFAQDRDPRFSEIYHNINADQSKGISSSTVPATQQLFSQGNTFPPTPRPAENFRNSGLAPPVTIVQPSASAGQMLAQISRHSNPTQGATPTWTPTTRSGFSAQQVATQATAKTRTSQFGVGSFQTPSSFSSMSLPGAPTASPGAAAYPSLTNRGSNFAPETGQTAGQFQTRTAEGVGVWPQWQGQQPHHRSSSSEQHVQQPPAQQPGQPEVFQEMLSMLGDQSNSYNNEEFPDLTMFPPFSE

For experiment [3], the target named is HA-HIF1α (UniProt Q16665). The experiment is described as above.
Experiment [4] concerns the target Flag-PPARδ (human) (UniProt Q03181). In words: co-IP; anti-Flag agarose beads, 4 h at 4 °C, lysates of co-transfected HEK293T in IP lysis buffer (20 mmol/L Tris-HCl pH 7.9, 200 mmol/L NaCl, 5 mmol/L MgCl2, 10% glycerol, 0.2 mmol/L EDTA, 0.1% NP-40); Western blot; in Figure 6E cells treated with GW501516 (6 h) or solvent. For orientation: In western blotting, separated proteins are transferred to a membrane and probed.

Experiment [5] deals with Flag-HIF1α (UniProt Q16665). The description is as above.

Four substances from article PMC8825601 can be followed below.

These are yes or no findings as the source states them, for the method shown. Binding seen in cells or lysates may run through a third protein. Some results given as binding are weak or reduced against the parent protein; the word gives no strength.

On to Flag-HIF1B (from UniProt P27540 1-789), for which, in experiment [1], the binding result is given as “binds weakly”.

Turning to Flag-PPARδ (from UniProt Q03181 1-441), the values for the binding result in experiment [2] and in experiment [3] were “no binding” and “binds”, respectively.

Take HA-HIF1α (from UniProt Q16665 1-826): the binding entry in experiment [4] is on record as “binds”.

With HA-PPARδ (from UniProt Q03181 1-441), in experiment [5], the binding result is reported as “binds”.
